# “Also recorded” adds a separate entry of the source.
# T1: MCT4 uncoupled to BSG-2 (Mus musculus, UniProt P57787)
# T1 construct: 8xHis-Flag (via Rhinovirus 3C protease-cleavable linker) (C); made in house; host or cells: HEK293S GnTI- (ATCC CRL-3022), pEG BacMam vector
# T1 sequence (P57787 1-470): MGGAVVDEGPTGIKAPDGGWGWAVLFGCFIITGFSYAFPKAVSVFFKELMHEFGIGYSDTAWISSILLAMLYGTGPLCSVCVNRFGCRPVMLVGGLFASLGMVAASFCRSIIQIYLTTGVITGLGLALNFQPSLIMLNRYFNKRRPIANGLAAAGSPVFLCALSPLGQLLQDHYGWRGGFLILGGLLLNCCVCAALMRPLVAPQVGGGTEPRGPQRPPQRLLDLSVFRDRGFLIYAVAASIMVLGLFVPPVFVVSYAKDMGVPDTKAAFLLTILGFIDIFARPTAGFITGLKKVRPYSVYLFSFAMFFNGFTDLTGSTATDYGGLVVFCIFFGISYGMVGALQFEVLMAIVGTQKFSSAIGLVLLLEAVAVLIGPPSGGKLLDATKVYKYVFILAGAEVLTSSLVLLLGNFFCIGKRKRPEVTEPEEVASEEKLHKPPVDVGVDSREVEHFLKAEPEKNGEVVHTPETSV
# T2: MCT1/BSG-2 complex (Mus musculus, UniProt P18572+P53986)
# T2 construct: 8xHis-Flag (via Rhinovirus 3C protease-cleavable linker) (C); made in house; host or cells: HEK293S GnTI- (ATCC CRL-3022), pEG BacMam vector
# T2 sequence (P53986 1-493): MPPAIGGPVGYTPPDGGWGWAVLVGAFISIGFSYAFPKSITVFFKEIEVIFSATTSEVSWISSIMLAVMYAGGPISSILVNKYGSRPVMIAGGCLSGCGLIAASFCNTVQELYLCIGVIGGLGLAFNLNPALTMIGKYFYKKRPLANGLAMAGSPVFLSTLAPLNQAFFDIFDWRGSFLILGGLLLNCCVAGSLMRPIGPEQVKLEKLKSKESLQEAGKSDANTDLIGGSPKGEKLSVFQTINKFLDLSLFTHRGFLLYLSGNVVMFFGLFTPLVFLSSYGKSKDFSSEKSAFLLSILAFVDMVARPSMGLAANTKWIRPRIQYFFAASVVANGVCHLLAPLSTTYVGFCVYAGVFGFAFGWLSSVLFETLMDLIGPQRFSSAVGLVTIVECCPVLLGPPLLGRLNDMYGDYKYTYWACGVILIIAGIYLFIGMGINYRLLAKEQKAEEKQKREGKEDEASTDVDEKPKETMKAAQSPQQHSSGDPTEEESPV
# T2 sequence (P18572 22-273 isoform P18572-2 limits assumed): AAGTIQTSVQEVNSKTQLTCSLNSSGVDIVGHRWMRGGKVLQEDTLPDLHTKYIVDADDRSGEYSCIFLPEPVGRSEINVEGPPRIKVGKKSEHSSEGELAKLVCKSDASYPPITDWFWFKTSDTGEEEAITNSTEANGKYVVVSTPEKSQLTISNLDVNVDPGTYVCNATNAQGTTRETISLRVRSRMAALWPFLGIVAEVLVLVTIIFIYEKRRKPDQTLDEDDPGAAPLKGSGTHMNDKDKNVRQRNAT
# T3: MCT1 uncoupled to BSG-2 (Mus musculus, UniProt P53986)
# T3 construct: 8xHis-Flag (via Rhinovirus 3C protease-cleavable linker) (C); made in house; host or cells: HEK293S GnTI- (ATCC CRL-3022), pEG BacMam vector
# T3 sequence (P53986 1-493): T2 sequence (P53986 1-493)
# T4: MCT1/BSG-2 (Mus musculus, UniProt P18572+P53986)
# T4 construct: 8xHis-Flag (via Rhinovirus 3C protease-cleavable linker) (C); made in house; host or cells: HEK293S GnTI- (ATCC CRL-3022), pEG BacMam vector
# T4 sequence (P53986 1-493): T2 sequence (P53986 1-493)
# T4 sequence (P18572 22-273 isoform P18572-2 limits assumed): T2 sequence (P18572 22-273 isoform P18572-2 limits assumed)
# B1: WZHAb10: anti-CD147 (BSG-2) monoclonal antibody, subclass IgG2; heavy chain SEQ ID NO: 17, light chain SEQ ID NO: 18 (antibody)
# heavy: QVQLVQSGAEVKKPGASVKVSCKASGYTFTNYWIHWVRQAPGQGLEWMGMIHPNSGSINYNEKFKTRVTMTRDTSTSTVYMELSSLRSEDTAVYYCARVGSGSLDYWGQGTLVTVSS[human IgG1 constant region left out here]
# light: EIVLTQSPATLSLSPGERATLSCRASQSISDYLHWYQQKPGQAPRLLIKYVSQSISGIPARFSGSGSGTYFTLTISSLEPEDVAVYYCQNGEEAPYTFGQGTKLEIKRTVAAPSVFIFPPSDEQLKSGTASVVCLLNNFYPREAKVQWKVDNALQSGNSQESVTEQDSKDSTYSLSSTLTLSKADYEKHKVYACEVTHQGLSSPVTKSFNRGEC
# Legend:
# [1] = test system: patient-derived NSCLC organoid; test: Organoid drug response assay (CellTiter-Glo); assay type: cell-based, human; conditions: three days of drug incubation; three patient models
# Procedure: All procedures performed involving human participants were approved by the Ethics Committee of Shanghai Jiao Tong University School of Medicine and were in accordance with the ethical standards of Helsinki Declaration (as revised in 2013). All the donors signed an informed consent form. Freshly excised tumor samples from patients were kept in MACS tissue storage solution (Miltenyi) at 4° C. upon harvest. Tumor tissues were minced into small pieces on ice, then incubated with 0.001% DNase (Sigma-Aldrich, MO, USA), 1 mg/mL collagenase/dispase (Roche, IN, USA), 200 U/mL penicillin, […], and […] amphotericin B (2% antibiotics, Sigma) in DMEM/F12 medium (Thermofisher) at 37° C. for three hours with gentle agitation and intermittent resuspension. Thereafter, the digested tissue suspension was repeatedly triturated via pipetting and passed through a 70 μm filter. The strained suspension was centrifuged at 112×g for three minutes, and red blood cells were lysed using lysis buffer (00443357, Thermofisher) for five minutes. […]
# The organoids cultured over two weeks were harvested and dissociated using 1× TrypLe (Thermofisher). […] The plates were agitated for 30 minutes at room temperature (10° C.-30° C.) prior to measuring luminescence.
# MCT4 uncoupled to BSG-2 = target: T1, MCT4 uncoupled to BSG-2; test: H+-L-lactate symport flux assay, WT MCT4 proteoliposomes; assay type: biochemical; conditions: 25 mM L-Lactate pH7.0; WZHAb10 6 μM; proteoliposomes with WT MCT4
# A20 lymphoma cells = test: Cell viability assay (CCK8), A20 cells; assay type: cell-based, murine; conditions: 72 hours; normoxia
# A20 cells = test: Measurement of lactate concentration, A20 cells; assay type: cell-based, murine; conditions: 72 hours; normoxia
# MCT1/BSG-2 complex = target: T2, MCT1/BSG-2 complex; test: Binding to MCT1/BSG-2 complex by gel filtration (antibody selection); conditions: purified hybridoma antibodies
# MCT4/BSG-2 = target: T5, MCT4/BSG-2 (Mus musculus, UniProt P18572); test: H+-L-lactate symport flux assay, MCT4/BSG-2 proteoliposomes (HPTS fluorescence); assay type: biochemical; conditions: H+ influx initiated by 25 mM L-Lactate pH7.0; WZHAb10 6 μM; 25° C.; vs IgG control
# T5 construct: 8xHis-Flag (via Rhinovirus 3C protease-cleavable linker) (C); made in house; host or cells: HEK293S GnTI- (ATCC CRL-3022), pEG BacMam vector
# B16F10 melanoma cells = test: Cell viability assay (CCK8), B16F10 cells; assay type: cell-based, murine; conditions: 72 hours; hypoxia
# MCT1 uncoupled to BSG-2 = target: T3, MCT1 uncoupled to BSG-2; test: H+-pyruvate symport flux assay, WT MCT1 proteoliposomes; assay type: biochemical; conditions: 25 mM pyruvate pH7.0; proteoliposomes with WT MCT1
# [2] = test system: A20(mouse tumor) xenografts; assay type: in vivo, BALB/c nude mice; conditions: 5 mg/kg, ip, every other day; vs IgG
# A549 cells = test: Measurement of lactate concentration, A549 cells; assay type: cell-based, human; conditions: 72 hours; hypoxia
# [3] = test system: cancer cells (A20, A549, B16F10); test: Cancer cell survival and lactate transport, pooled statements (FIGS. 5-8); assay type: cell-based
# [4] = test system: peripheral blood mononuclear cells (PBMC); test: Toxicity on patients' PBMC; assay type: cell-based, human; conditions: at 0.0006 μM
# Procedure: Then, treating organoids in presence of 5 μg/mL pembrolizumab, in combination with either of these agents (AZD3965 at 0.1 μM, GSK2837808A at 1 μM, and WZHAb10 at 0.0006 μM) and each PBMC (FIGS. 18, 19 and 20). IgG was used as control in FIG. 18, IgG and/or vehicle were used as control in FIGS. 19-20.
# B16F10 cells = test: Measurement of lactate concentration, B16F10 cells; assay type: cell-based, murine; conditions: 72 hours; hypoxia
# [5] = test system: A549 non-small-cell lung (NSCL) carcinoma cells; test: Cell viability assay (CCK8), A549 cells; assay type: cell-based, human; conditions: 72 hours; hypoxia
# [6] = test system: A549(human tumor) xenografts; test: A549 xenograft model in nude mice; assay type: in vivo; conditions: 5 mg/kg
# MCT1/BSG-2 = target: T4, MCT1/BSG-2; test: H+-pyruvate symport flux assay, MCT1/BSG-2 proteoliposomes (HPTS fluorescence); assay type: biochemical
molecule,measurement,setting,value
B1,anti-proliferative effect of single agent on organoids,[1],moderate anti-proliferative effect
same,effect on transport activity of MCT4 uncoupled to BSG-2,MCT4 uncoupled to BSG-2,did not affect transport activity
same,cell proliferation / survival of A20 cells,A20 lymphoma cells,suppressed cell proliferation; also recorded: suppressed cell survival
same,lactate transport of A20 cells,A20 cells,suppressed cell survival and lactate transport
same,binding to MCT1/BSG-2 complex,MCT1/BSG-2 complex,strong binding
same,reduction of transport activity of MCT4/BSG-2,MCT4/BSG-2,~50%
same,cell proliferation / survival of B16F10 cells,B16F10 melanoma cells,suppressed cell proliferation; also recorded: suppressed cell survival
same,effect on transport activity of MCT1 uncoupled to BSG-2,MCT1 uncoupled to BSG-2,did not affect transport activity
same,"tumor growth, A20 xenograft",[2],evidently suppressed tumor growth
same,lactate transport of A549 cells,A549 cells,suppressed cell survival and lactate transport
same,suppression of survival and lactate transport of cancer cells compared with AZD3965,[3],stronger suppression than AZD3965
same,effect on T cell growth (PBMC),[4],little effects on T cell growth
same,lactate transport of B16F10 cells,B16F10 cells,suppressed cell survival and lactate transport
same,cell proliferation / survival of A549 cells,[5],suppressed cell proliferation; also recorded: suppressed cell survival
same,"body weights during treatment, A549 xenograft","[6]; ip, every other day",little effect on body weights
same,"tumor growth, A549 xenograft","[6]; ip, every other day, vs IgG",evidently suppressed tumor growth
same,toxicity of treatment,[6]; xenograft mice,not associated with any obvious toxicity
same,reduction of transport activity of MCT1/BSG-2,"MCT1/BSG-2; H+ influx initiated by 25 mM pyruvate pH7.0, WZHAb10 3 μM or 6 μM, 25° C., vs IgG control",around 75%
same,inhibition of MCT1 transport activity (antibody selection),MCT1/BSG-2; among five binding antibodies,proved to inhibit MCT1 transport activity

# — patent US12357691B2, “Antibodies specifically binding to CD147 and uses thereof” (Alphelix Biotech Co., Ltd., priority 2022, dated 2025)
